Data from US8735349B2, “Method for improving glucose tolerance in a diabetes type 2 patient of younger than 50 years and having postprandial plasma glucose concentration of at least 14 mmol/L” (priority 2011, dated 2014).

Tested on: obese type 2 diabetic patients younger than 50 and not adequately controlled with metformin
Conditions: human, in vivo

N[C@@H](CC(=O)N1CCn2c(nnc2C(F)(F)F)C1)Cc1cc(F)c(F)cc1F [sitagliptin]
Number of patients with TEAE: HLGT: Injuries NEC: 2 | Number of patients with TEAE: HLGT: Joint disorders: 3 | Number of patients with TEAE: HLGT: Lipid metabolism disorders: 3 | Number of patients with TEAE: HLGT: Menstrual cycle and uterine bleeding disorders: 0 | Number of patients with TEAE: HLGT: Neurological disorders NEC: 7 | Number of patients with TEAE: HLGT: Procedural related injuries and complications NEC: 0 | Number of patients with TEAE: HLGT: Purine and pyrimidine metabolism disorders: 3 | Number of patients with TEAE: HLGT: Respiratory disorders NEC: 6 | Number of patients with TEAE: HLGT: Sexual dysfunctions, disturbances and gender identity disorders: 1 | Number of patients with TEAE: HLGT: Sexual function and fertility disorders: 2 | Number of patients with TEAE: HLGT: Sleep disorders and disturbances: 3 | Number of patients with TEAE: HLGT: Urinary tract signs and symptoms: 4 | Number of patients with TEAE: HLGT: Urolithiases: 1 | Number of patients with TEAE: HLGT: Vascular hypertensive disorders: 4 | Number of patients with TEAE: HLGT: Viral infectious disorders: 11 | Number of patients with TEAE: HLGT: Vision disorders: 0 | Number of patients with TEAE: HLT: Abdominal and gastrointestinal infections: 7 | Number of patients with TEAE: HLT: Anxiety symptoms: 3 | Number of patients with TEAE: HLT: Appetite disorders: 0 | Number of patients with TEAE: HLT: Asthenic conditions: 4 | Number of patients with TEAE: HLT: Cardiac signs and symptoms NEC: 2 | Number of patients with TEAE: HLT: Coughing and associated symptoms: 2 | Number of patients with TEAE: HLT: Depressive disorders: 0 | Number of patients with TEAE: HLT: Dermatitis and eczema: 2 | Number of patients with TEAE: HLT: Diarrhoea (excl infective): 12 | Number of patients with TEAE: HLT: Digestive enzymes: 2 | Number of patients with TEAE: HLT: Disturbances in consciousness NEC: 1 | Number of patients with TEAE: HLT: Disturbances in initiating and maintaining sleep: 2 | Number of patients with TEAE: HLT: Dyspeptic signs and symptoms: 3 | Number of patients with TEAE: HLT: Ear infections: 2 | Number of patients with TEAE: HLT: Elevated triglycerides: 1 | Number of patients with TEAE: HLT: Erection and ejaculation conditions and disorders: 2 | Number of patients with TEAE: HLT: Flatulence, bloating and distension: 5 | Number of patients with TEAE: HLT: Gastritis (excl infective): 1 | Number of patients with TEAE: HLT: Gastrointestinal atonic and hypomotility disorders NEC: 3 | Number of patients with TEAE: HLT: General signs and symptoms NEC: 0 | Number of patients with TEAE: HLT: Headaches NEC: 15 | Number of patients with TEAE: HLT: Hepatocellular damage and hepatitis NEC: 0 | Number of patients with TEAE: HLT: Hyperglycaemic conditions NEC: 2 | Number of patients with TEAE: HLT: Hypoglycaemic conditions NEC: 5 | Number of patients with TEAE: HLT: Lipid metabolism and deposit disorders NEC: 2 | Number of patients with TEAE: HLT: Liver function analyses: 2 | Number of patients with TEAE: HLT: Lower respiratory tract and lung infections: 4 | Number of patients with TEAE: HLT: Menstruation and uterine bleeding NEC: 0 | Number of patients with TEAE: HLT: Nausea and vomiting symptoms: 11 | Number of patients with TEAE: HLT: Neurological signs and symptoms NEC: 5 | Number of patients with TEAE: HLT: Non-site specific procedural complications: 0 | Number of patients with TEAE: HLT: Oedema NEC: 4 | Number of patients with TEAE: HLT: Osteoarthropathies: 0 | Number of patients with TEAE: HLT: Pruritus NEC: 0 | Number of patients with TEAE: HLT: Purine metabolism disorders NEC: 3 | Number of patients with TEAE: HLT: Rate and rhythm disorders NEC: 2 | Number of patients with TEAE: HLT: Renal lithiasis: 1 | Number of patients with TEAE: HLT: Sexual desire disorders: 1 | Number of patients with TEAE: HLT: Skin injuries NEC: 0 | Number of patients with TEAE: HLT: Upper respiratory tract infections: 23 | Number of patients with TEAE: HLT: Upper respiratory tract signs and symptoms: 3 | Number of patients with TEAE: HLT: Urinary abnormalities: 3 | Number of patients with TEAE: HLT: Urinary tract infections: 2 | Number of patients with TEAE: HLT: Vascular hypertensive disorders NEC: 4 | Number of patients with TEAE: HLT: Viral infections NEC: 6 | Number of patients with TEAE: HLT: Visual disorders NEC: 0 | Number of patients with TEAE: Headache: 15 | Number of patients with TEAE: Hepatic steatosis: 0 | Number of patients with TEAE: Hyperglycaemia: 2 | Number of patients with TEAE: Hypertension: 4 | Number of patients with TEAE: Hypertriglyceridaemia: 1 | Number of patients with TEAE: Hypoglycaemia: 5 | Number of patients with TEAE: INFECTIONS AND INFESTATIONS: 51 | Number of patients with TEAE: Injection site pruritus: 0 | Number of patients with TEAE: Insomnia: 2 | Number of patients with TEAE: Joint injury: 2 | Number of patients with TEAE: Libido decreased: 1 | Number of patients with TEAE: Limb injury: 2 | Number of patients with TEAE: Lipase increased: 1 | Number of patients with TEAE: METABOLISM AND NUTRITION DISORDERS: 15 | Number of patients with TEAE: Malaise: 2 | Number of patients with TEAE: Microalbuminuria: 2 | Number of patients with TEAE: NERVOUS SYSTEM DISORDERS: 20 | Number of patients with TEAE: Nasopharyngitis: 12 | Number of patients with TEAE: Nausea: 11 | Number of patients with TEAE: Nephrolithiasis: 1 | Number of patients with TEAE: Oedema peripheral: 4 | Number of patients with TEAE: Oropharyngeal pain: 2 | Number of patients with TEAE: Osteoarthritis: 0 | Number of patients with TEAE: PSYCHIATRIC DISORDERS: 7 | Number of patients with TEAE: Pain in extremity: 2 | Number of patients with TEAE: Palpitations: 2 | Number of patients with TEAE: Pharyngitis: 3 | Number of patients with TEAE: Pharyngotonsillitis: 0 | Number of patients with TEAE: Procedural pain: 0 | Number of patients with TEAE: Pruritus: 0 | Number of patients with TEAE: RENAL AND URINARY DISORDERS: 7 | Number of patients with TEAE: REPRODUCTIVE SYSTEM AND BREAST DISORDERS: 2 | Number of patients with TEAE: RESPIRATORY, THORACIC AND MEDIASTINAL DISORDERS: 8 | Number of patients with TEAE: Respiratory tract infection: 2 | Number of patients with TEAE: SKIN AND SUBCUTANEOUS TISSUE DISORDERS: 4 | Number of patients with TEAE: Sinusitis: 1 | Number of patients with TEAE: Somnolence: 1 | Number of patients with TEAE: Stress: 0 | Number of patients with TEAE: Tachycardia: 2 | Number of patients with TEAE: Tooth infection: 0 | Number of patients with TEAE: Upper respiratory tract infection: 6 | Number of patients with TEAE: Urinary tract infection: 2 | Number of patients with TEAE: VASCULAR DISORDERS: 5 | Number of patients with TEAE: Vision blurred: 0 | Number of patients with TEAE: Vomiting: 0 | Patients with any TEAE: 98 (60.9%) n (%) | Patients with any TEAE leading to permanent treatment discontinuation: 5 (3.1%) n (%) | Patients with any serious TEAE: 3 (1.9%) n (%) | Serious TEAE: Abscess limb: 1 (0.6%) n (%) | Serious TEAE: Anaphylactic reaction: 0 n (%) | Serious TEAE: Any class: 3 (1.9%) n (%) | Serious TEAE: Arteriovenous fistula: 0 n (%) | Serious TEAE: Bile duct stone: 1 (0.6%) n (%) | Serious TEAE: HEPATOBILIARY DISORDERS: 1 (0.6%) n (%) | Serious TEAE: HLGT: Allergic conditions: 0 n (%) | Serious TEAE: HLGT: Bile duct disorders: 1 (0.6%) n (%) | Serious TEAE: HLGT: Infections - pathogen unspecified: 1 (0.6%) n (%) | Serious TEAE: HLGT: Renal disorders (excl nephropathies): 1 (0.6%) n (%) | Serious TEAE: HLGT: Urolithiases: 0 n (%) | Serious TEAE: HLGT: Vascular disorders NEC: 0 n (%) | Serious TEAE: HLT: Anaphylactic responses: 0 n (%) | Serious TEAE: HLT: Infections NEC: 1 (0.6%) n (%) | Serious TEAE: HLT: Obstructive bile duct disorders (excl neoplasms): 1 (0.6%) n (%) | Serious TEAE: HLT: Renal failure and impairment: 1 (0.6%) n (%) | Serious TEAE: HLT: Renal lithiasis: 0 n (%) | Serious TEAE: HLT: Vascular malformations and acquired anomalies: 0 n (%) | Serious TEAE: IMMUNE SYSTEM DISORDERS: 0 n (%) | Serious TEAE: INFECTIONS AND INFESTATIONS: 1 (0.6%) n (%) | Serious TEAE: Nephrolithiasis: 0 n (%) | Serious TEAE: RENAL AND URINARY DISORDERS: 1 (0.6%) n (%) | Serious TEAE: Renal failure: 1 (0.6%) n (%) | Serious TEAE: VASCULAR DISORDERS: 0 n (%) | TEAE leading to permanent treatment discontinuation: Abdominal pain upper: 0 n (%) | TEAE leading to permanent treatment discontinuation: Abscess limb: 1 (0.6%) n (%) | TEAE leading to permanent treatment discontinuation: Alanine aminotransferase increased: 0 n (%) | TEAE leading to permanent treatment discontinuation: Anaphylactic reaction: 0 n (%) | TEAE leading to permanent treatment discontinuation: Any class: 5 (3.1%) n (%) | TEAE leading to permanent treatment discontinuation: Bile duct stone: 1 (0.6%) n (%) | TEAE leading to permanent treatment discontinuation: Diarrhoea: 0 n (%) | TEAE leading to permanent treatment discontinuation: GASTROINTESTINAL DISORDERS: 0 n (%) | TEAE leading to permanent treatment discontinuation: HEPATOBILIARY DISORDERS: 1 (0.6%) n (%) | TEAE leading to permanent treatment discontinuation: HLGT: Allergic conditions: 0 n (%) | TEAE leading to permanent treatment discontinuation: HLGT: Bile duct disorders: 1 (0.6%) n (%) | TEAE leading to permanent treatment discontinuation: HLGT: Gastrointestinal investigations: 0 n (%) | TEAE leading to permanent treatment discontinuation: HLGT: Gastrointestinal motility and defaecation conditions: 0 n (%) | TEAE leading to permanent treatment discontinuation: HLGT: Gastrointestinal signs and symptoms: 0 n (%) | TEAE leading to permanent treatment discontinuation: HLGT: Haematology investigations (incl blood groups): 1 (0.6%) n (%) | TEAE leading to permanent treatment discontinuation: HLGT: Hepatobiliary investigations: 0 n (%) | TEAE leading to permanent treatment discontinuation: HLGT: Infections - pathogen unspecified: 1 (0.6%) n (%) | TEAE leading to permanent treatment discontinuation: HLGT: Neurological disorders NEC: 1 (0.6%) n (%) | TEAE leading to permanent treatment discontinuation: HLGT: Renal disorders (excl nephropathies): 1 (0.6%) n (%) | TEAE leading to permanent treatment discontinuation: HLT: Anaphylactic responses: 0 n (%) | TEAE leading to permanent treatment discontinuation: HLT: Diarrhoea (excl infective): 0 n (%) | TEAE leading to permanent treatment discontinuation: HLT: Digestive enzymes: 0 n (%) | TEAE leading to permanent treatment discontinuation: HLT: Disturbances in consciousness NEC: 1 (0.6%) n (%) | TEAE leading to permanent treatment discontinuation: HLT: Infections NEC: 1 (0.6%) n (%) | TEAE leading to permanent treatment discontinuation: HLT: Liver function analyses: 0 n (%) | TEAE leading to permanent treatment discontinuation: HLT: Nausea and vomiting symptoms: 0 n (%) | TEAE leading to permanent treatment discontinuation: HLT: Obstructive bile duct disorders (excl neoplasms): 1 (0.6%) n (%) | TEAE leading to permanent treatment discontinuation: HLT: Platelet analyses: 1 (0.6%) n (%) | TEAE leading to permanent treatment discontinuation: HLT: Renal failure and impairment: 1 (0.6%) n (%) | TEAE leading to permanent treatment discontinuation: IMMUNE SYSTEM DISORDERS: 0 n (%) | TEAE leading to permanent treatment discontinuation: INFECTIONS AND INFESTATIONS: 1 (0.6%) n (%) | TEAE leading to permanent treatment discontinuation: INVESTIGATIONS: 1 (0.6%) n (%) | TEAE leading to permanent treatment discontinuation: Lipase increased: 0 n (%) | TEAE leading to permanent treatment discontinuation: NERVOUS SYSTEM DISORDERS: 1 (0.6%) n (%) | TEAE leading to permanent treatment discontinuation: Nausea: 0 n (%) | TEAE leading to permanent treatment discontinuation: Platelet count decreased: 1 (0.6%) n (%) | TEAE leading to permanent treatment discontinuation: RENAL AND URINARY DISORDERS: 1 (0.6%) n (%) | TEAE leading to permanent treatment discontinuation: Renal failure: 1 (0.6%) n (%) | TEAE leading to permanent treatment discontinuation: Somnolence: 1 (0.6%) n (%) | TEAE leading to permanent treatment discontinuation: Vomiting: 0 n (%) | patients with TEAE diarrhea: 7.5% | percentage of patients with TEAEs leading to treatment discontinuation: 3.1% | incidence of treatment emergent adverse events (TEAEs) (24 weeks): 60.9% | patients with TEAE headache (24 weeks): 9.3% | patients with TEAE nausea (24 weeks): 6.8% | patients with a serious TEAE (24 weeks): 1.9% | % of patients with TEAE: HLT: Gastrointestinal and abdominal pains (excl oral and throat) (po): 6.2% | Number of patients with TEAE: HLT: Dental and oral soft tissue infections (po): 0 | Number of patients with TEAE: HLT: Gastrointestinal and abdominal pains (excl oral and throat) (po): 10 | TEAE leading to permanent treatment discontinuation: HLT: Gastrointestinal and abdominal pains (excl oral and throat) (po): 0 n (%)
